In PubChem BioAssay AID504832 (National Center for Advancing Translational Sciences (NCATS), 2011):
Among all 310,000 compounds or so, about 18,000 (5.8%) were called active. The shares of active, inactive and inconclusive entries below differ from those in the screen. The call rests on the fitted dose curve; in most records, active means well fitted inhibition curve with a large enough effect; inconclusive means small, poorly fitted or top-dose-only effect, or another doubt; inactive means no such curve, though single readings can be large or run the other way. No potency is given beside an inconclusive call; the fits are too rough.

assay: Primary qHTS for delayed death inhibitors of the malarial parasite plastid, 48 hour incubation; details: P. falciparum luciferase growth in erythrocytes; series mostly up to 28.7 µM; activity change, negative = inhibition: at the top concentration
Method in brief: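 Compounds are pin-transferred into medium, infected erythrocytes (2% hematocrit, 0.1% parasitemia final) are added, and plates sit one parasite generation at 37 C in 5% CO2. Detection reagent is then added and luminescence measured.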
On the % scale 0 is the no-effect control and ±100 the full control effect; potency means the concentration at half of the fitted maximal effect; tags describe the fitted curve by direction and shape.

| Structure (SMILES) | Potency | activity change, negative = inhibition |
| --- | --- | --- |
| CCOC(=O)N1CCC(N2CCN(S(=O)(=O)c3ccc(OC)cc3)CC2)CC1 | inconclusive [inhibitor, single point] |  |
| Cc1cccc(NC(=O)CCS(=O)(=O)c2ccc(Cl)cc2)c1 |  | inactive: 0.856% [at 0.00184 µM] |
| CCOc1ccccc1CNC(=O)Cn1ccc2cc(S(=O)(=O)N3CCCCCC3)ccc21 | inconclusive [inhibitor, partial curve, poor fit] |  |
| CC(C)OC(=O)NS(=O)(=O)c1cccc([N+](=O)[O-])c1 |  | inactive: -21% |
| COC(=O)C1=C(C)N(Cc2ccccc2)C(=O)N[C@H]1c1cccc(C(F)(F)F)c1 | inconclusive [inhibitor, single point] |  |
| Cn1c(=O)c([N+](=O)[O-])c(NCCc2ccccc2)c2ccccc21 | inconclusive [inhibitor, single point] |  |
| COc1ccc(S(=O)(=O)N2CCOCC2)cc1NC(=O)CCc1cc(OC)c(OC)c(OC)c1 | inconclusive [inhibitor, single point] |  |
| O=C(NO)c1cc(OCC(F)(F)F)ccc1OCC(F)(F)F | inconclusive [inhibitor, full curve, poor fit] |  |
| COc1ccc([N+](=O)[O-])cc1N(CC(O)CN(CC(C)C)CC(C)C)S(=O)(=O)c1ccccc1 (centres undefined) | active: 9.28 µM |  |
| Fc1ccc2c(-c3cccc(C(F)(F)F)c3)c(-c3ccccc3)ncc2c1 | inconclusive [inhibitor, single point] |  |
| CC(C)CNC(=O)c1oc2ccccc2c1COc1ccccc1 | active: 11.7 µM |  |
| COc1cccc(C2SCC(=O)N2c2ccc(Br)cc2)c1OC (centres undefined) |  | inactive: -19.5% |
| O=C(Nc1ccc(S(=O)(=O)Nc2ccccc2)cc1)c1ccc(CN2CCOCC2)cc1 | inconclusive [inhibitor, partial curve, poor fit] |  |
| O=C(OCCNc1nc(-c2ccccc2)nc2ccccc12)c1ccncc1 | inconclusive [inhibitor, partial curve, poor fit] |  |
| Cc1ccc(OCCC(=O)OCC(=O)NCCc2ccc(Cl)cc2)cc1 | inconclusive [inhibitor, single point] |  |
| CCCCn1nc(C(=O)N(C)C2CCCCC2)c2ccccc2c1=O | inconclusive [inhibitor, single point] |  |
| N#CC1=C(N)N(c2ncn[nH]2)C2=C(C(=O)CCC2)C1c1ccccc1 (centres undefined) | inconclusive [inhibitor, partial curve, poor fit] |  |
| CCCNC(=O)Cn1cc(S(=O)(=O)N2CCCC2)c(S(=O)(=O)N2CCCC2)c1 | inconclusive [inhibitor, partial curve, poor fit] |  |
| CCOC(=O)c1cccc(NC(=O)CN2C(=O)C3CC=CCC3C2=O)c1 (centres undefined) |  | inactive: 0.828% |
| CCOc1ccc(CCNc2ccc3nnc(-c4ccccc4)n3n2)cc1OCC | inconclusive [inhibitor, full curve, poor fit] |  |
| CCC(=O)NC(c1ccc(OC)cc1)c1c(O)ccc2ccccc12 (centres undefined) | inconclusive [inhibitor, partial curve] |  |
| O=C(CCN1C(=O)/C(=C/c2ccccc2Cl)SC1=S)NCCCN1CCOCC1 | inconclusive [inhibitor, partial curve] |  |
| CCCCNC(=O)OC(C)CNC(=O)Oc1cccc(C)c1 (centres undefined) |  | inactive: -2.95% |

| Structure (SMILES) | Potency | activity change, negative = inhibition |
| --- | --- | --- |
| N#CCCN1CCN(C(CNS(=O)(=O)c2ccc(Cl)cc2)c2ccccc2)CC1 (centres undefined) |  | inactive: -18.5% |
| CCOC(=O)c1cn(-c2nc(-c3ccc(Cl)c(Cl)c3)cs2)c2c(F)c(N3CCOCC3)c(F)cc2c1=O | inconclusive [inhibitor, single point] |  |
| Cc1c(C(=O)C(=O)N2CCN(Cc3ccc4c(c3)OCO4)CC2)c2ccccc2n1C | inconclusive [inhibitor, partial curve] |  |
| COc1ccccc1C(=O)N/N=C/C(C)=C/c1ccccc1 |  | inactive: 15% |
| N#Cc1c(NC(=O)COC(=O)c2nccnc2N)sc2c1CCCC2 |  | inactive: 6.63% |
| CCc1ccc(OCC(=O)NCCc2ccc3c(c2)OCCO3)cc1 | inconclusive [inhibitor, single point] |  |
| O=C(Nc1nccs1)C(c1ccccc1)N1CCCCC1 (centres undefined) |  | inactive: 2.21% |
| COc1ccc(CCNC(=O)c2cc(-c3ccccc3OC)on2)cc1OC | inconclusive [inhibitor, single point] |  |
| CC(OC(=O)/C=C/c1cccs1)C(=O)Nc1ccc(C(N)=O)cc1 (centres undefined) |  | inactive: -7.69% |
| OCCN(Cc1ccccc1)CC(O)COc1ccc(-c2ccccc2)cc1 (centres undefined) | inconclusive [inhibitor, single point] |  |
| C(=N\Nc1nc(Nc2ccccc2)nc(Nc2ccccc2)n1)/c1ccncc1 |  | inactive: -0.473% |
| O=C(NCCOCCNC(=O)OCc1ccccc1)OCc1ccccc1 |  | inactive: 1.69% |
| C/C(=N\NC(=O)C1CC1)c1ccc(OC(F)F)cc1OC(F)F | inconclusive [inhibitor, single point] |  |
| Cc1cc(C(=O)Nc2nc(-c3ccccn3)cs2)ccc1[N+](=O)[O-] | active: 9.28 µM |  |
| NC(=O)[C@@H]1CCCNc2c(I)cc([N+](=O)[O-])cc2C(=O)N[C@@H](CCC(=O)O)C(=O)N[C@@H](CO)C(=O)N1 |  | inactive: 8.93% |
| COc1cc(OC)cc(C(=O)NNC(=O)CN2C(=O)NC(C)(c3ccccc3)C2=O)c1 (centres undefined) | inconclusive [inhibitor, partial curve, poor fit] |  |
| CCCCn1c(N)c(N(CC(C)C)C(=O)CSc2n[nH]c(-c3ccc(C)cc3)n2)c(=O)[nH]c1=O | inconclusive [inhibitor, partial curve, poor fit] |  |
| CCCCn1c(NC(=O)c2ccco2)c(S(=O)(=O)c2ccc(C)cc2)c2nc3ccccc3nc21 | inconclusive [inhibitor, partial curve] |  |
| COc1cc2c(cc1OC)CN(CC(=O)Nc1cccc(C)c1)CC2 | inconclusive [inhibitor, single point] |  |
| CCN(CC)C(=O)CSc1nc2cc3c(cc2c(=O)n1Cc1ccc(OC)cc1)OCO3 | inconclusive [inhibitor, partial curve, poor fit] |  |
| S=C(Nc1cccc2ccccc12)N1CCN(c2ncccn2)CC1 |  | inactive: 58% |
| Cc1cc(Cn2nc(-c3ccccc3)cc2C(=O)NCc2cccc(C(F)(F)F)c2)on1 | inconclusive [inhibitor, partial curve] |  |
| O=c1/c(=C\c2cccnc2)sc2nc3ccccc3n12 |  | inactive: 60.4% |

| Structure (SMILES) | Potency | activity change, negative = inhibition |
| --- | --- | --- |
| COc1ccccc1NC(=O)C(CC=C(Cl)Cl)C(C)=O (centres undefined) |  | inactive: -61.8% |
| O=C(NCc1cccc(Cl)c1)C1CCCN(c2ncnc3c2nc2n3CCCCC2)C1 (centres undefined) | inconclusive [inhibitor, single point] |  |
| COc1ccccc1C(=O)Nc1ccc(Cc2ccncc2)cc1 |  | inactive: -12% |
| CC(=O)Nc1cccc(NC(=O)CSc2nnc(Cc3cccn3C)n2CCc2ccccc2)c1 | inconclusive [inhibitor, single point] |  |
| COC(=O)C1CCN(C(=O)Cc2ccc(Br)cc2)CC1 |  | inactive: 14.8% |
| CCC[C@@H]1CCCC/C=C\CCCC(=O)OCCN1C(=O)OC(C)(C)C | inconclusive [inhibitor, single point] |  |
| COc1ccc(-c2oc(=O)c3cc(OC)c(OC)cc3c2-c2cc(F)cc(OC)c2)cc1 | inconclusive [inhibitor, full curve] |  |
| CCCN(CC1CC1)C(=O)COC(=O)c1oc2c(F)cccc2c1C | inconclusive [inhibitor, single point] |  |
| O=C(CCc1nc(-c2ccccc2F)no1)NCCc1ccccc1Cl | inconclusive [inhibitor, partial curve, poor fit] |  |
| N#Cc1c(Nc2ccccc2)c(/C=N/N=C/c2ccccc2)c[nH]c1=O |  | inactive: -17.4% |
| COc1ccc2oc3cc(C)[n+]([O-])c(-c4ccc(Cl)cc4)c3c2c1 |  | inactive: -4.2% |
| C=CCSc1nnc(-c2nnc(SCC=C)n2CC)n1CC | active: 10.4 µM |  |
| Cc1cccc(C(=O)NC(=S)N(C)C2CCCCC2)c1 | inconclusive [inhibitor, single point] |  |
| CCOC(=O)C1CCCN(Cc2nc3ccc([N+](=O)[O-])cc3c(=O)n2-c2ccc(OC)cc2OC)C1 (centres undefined) | inconclusive [inhibitor, single point] |  |
| Cc1ccc(C2C(C#N)=C(N)Oc3cc4c(cc32)OCO4)cc1 (centres undefined) | inconclusive [inhibitor, single point] |  |
| Cc1c(Nc2nc(-c3cccc([N+](=O)[O-])c3)cs2)c(=O)n(-c2ccccc2)n1C |  | inactive: -0.652% |
| Cc1onc(-c2c(F)cccc2Cl)c1C(=O)OCC(=O)NCc1ccco1 | inconclusive [inhibitor, partial curve, poor fit] |  |
| Oc1ccc(C[C@@H]2CNC(=S)N2CCCCC2CCCCC2)cc1 | inconclusive [inhibitor, single point] |  |
| CC(=O)c1ccc(N=c2scc(C)n2C(C)C)cc1 |  | inactive: 32.9% |
| C/C(=N\N1CCN(c2ccc(Cl)cc2)CC1)c1cccc([N+](=O)[O-])c1 |  | inactive: -4.8% |
| COc1ccc(Cn2nc(C)cc2C)cc1OC | inconclusive [inhibitor, partial curve, poor fit] |  |
| COc1ccc(NC(=O)/C(C#N)=C\c2cc(C)n(-c3ccc4c(c3)OCO4)c2C)cc1 | inconclusive [inhibitor, partial curve] |  |
| CCCCCCC1CCC(C(=O)N2CCOCC2)CC1 (centres undefined) | inconclusive [inhibitor, partial curve, poor fit] |  |
